From PubChem BioAssay AID463173 (ICCB-Longwood Screening Facility, Harvard Medical School, 2010) come the findings set out here.

The whole screen tested about 52,000 compounds, of which about 1,700 (3.3%) were called active. No stated cut-off is given here; in the data, active means survival mostly below about 52% (no sharp cut-off); inactive means mostly above about 56%. This is one part of the list.

For the assay, the system named is Wild type. Briefly: growth inhibition of S. aureus wild type versus tarO mutant, primary screen, teichoic acid synthesis inhibitors, RN4220, OD600 (AID 463173). The settings on record: S. aureus RN4220 wild type/DeltatarO growth, OD600, 18 h, hits give low values, screened at 18.75 µg/mL (by protocol).
Take `NNC(=O)C(Sc1n[nH]c(=O)[nH]c1=O)c1ccccc1` (centres undefined): the survival is inactive: 112%. With `O=C(NCCOCCn1c(=O)oc2ccccc21)Nc1ccc(Cl)cc1`, the survival was inactive: 81%. On to `Cc1ccccc1NC(=O)c1c(NC(=O)Cc2ccccc2)sc2c1CCC2`, for which the survival was inactive: 48%. As to `CCOc1ccc(CNC(=O)c2ccc3c(c2)c(C)c(C)n3Cc2ccc(Cl)cc2)cc1`, the survival is inactive: 76%. `CN(C)S(=O)(=O)n1cc(/C=C(\NC(=O)c2ccccc2)C(=O)NCCCn2ccnc2)c2ccccc21`: the survival was inactive: 115%. Consider `O=C(O)CS(=O)(=O)c1nc2ccccc2s1`, for which the survival was inactive: 112%.

As to `CCNc1ccc(-c2nc(-c3ccco3)no2)cc1[N+](=O)[O-]`, the survival is inactive: 81%. On to `COc1ccc(N2CC(NC(=O)CCc3ccccc3)CC2=O)cc1OC` (centres undefined), for which the survival was inactive: 71%. For `Cc1cc(C)c(NC(=O)c2cc(S(=O)(=O)N3CCN(c4ccccc4F)CC3)ccc2F)c(C)c1`, the survival is inactive: 102%. On to `Cc1ccc2oc(=O)n(CCCOc3ccc(Cl)cc3)c2c1`, for which the survival is active: -9%. In the case of `Cc1cc(OCC(=O)Nc2ccc3c(c2)OCCO3)cc(C)c1Cl`, the survival is inactive: 113%. As to `CCOC(=O)c1ccccc1NC(=O)N1CCC(N2CCN(Cc3ccccc3)C(=O)C2=O)CC1`, the survival is inactive: 69%.

With `CCOC(=O)c1c(C(=O)CSc2ncc(-c3ccc(F)cc3)n2Cc2ccco2)sc2c1CCCC2`, the survival is inactive: 116%. As to `Cc1ccc2cc(CN(C(=O)c3cnccn3)C3CCCCC3)c(=O)[nH]c2c1`, the survival is inactive: 107%. Regarding `COC(=O)c1scc(-c2ccc(C)cc2)c1S(=O)(=O)N1CCN(c2ccc(OC)cc2)CC1`, the survival is inactive: 75%. Regarding `O=C(Cn1c(=O)n(CC2CCCO2)c(=O)c2ccccc21)Nc1cccc(Cl)c1` (centres undefined), the survival is inactive: 82%. Regarding `COc1cc(OC)c(Nc2nc3ccccc3nc2-n2nc(C)cc2C)cc1Cl`, the survival is inactive: 80%. Take `Cc1ccc(-c2nc3nc(C)cc(Nc4ccccc4O)n3n2)cc1`: the survival is inactive: 83%.

For the compound `COc1cccc(NC(=O)c2oc3ccccc3c2C)c1`, the survival is inactive: 117%. For the compound `CCS(=O)(=O)N1CCc2cc(C(=O)NCc3ccccc3)ccc21`, the survival was inactive: 88%. For the compound `C=CCN1C(=O)C(Cc2ccc(F)cc2)S/C1=N\N=C/c1ccco1` (centres undefined), the survival is inactive: 106%. Consider `Cc1cc(C)nc(Sc2ccc3nnnn3n2)n1`, for which the survival is inactive: 100%. Next, `CC(=O)N1SC(N)=NC1c1ccccc1` (centres undefined): inactive: 111%; `COc1cc(OC)c(NS(=O)(=O)c2cc(-c3cnc(C)o3)ccc2OC)cc1Cl`: inactive: 60%. Consider `CSc1ncc(C(=O)Nc2ccc(F)cc2F)c(-c2ccccc2)n1`, for which the survival is inactive: 73%. Regarding `CCCC1=Nc2cc(C(=O)NCCc3ccc(OC)cc3OC)ccc2Sc2ccccc21`, the survival was inactive: 119%. With `Cc1ccc2oc(-c3cc(NC(=O)c4ccco4)ccc3Cl)nc2c1`, the survival is active: 1%. To `Cc1ccc(NC(=O)CN2C(=O)CCn3nc(-c4cccn4C)cc32)cc1` belongs inactive: 77%; to `CCOc1ccc(OCC)c(NC(=O)CCC(=O)N2CCOc3ccccc32)c1`, inactive: 116%.

For `COCCCNc1nc2c(S(=O)(=O)c3ccc(C)c(C)c3)nnn2c2ccc(Cl)cc12`, the survival was inactive: 114%.

For the compound `Cc1cn(C)c(CC(=O)NCc2ccccc2Cl)c1C(=O)O`, the survival is inactive: 53%. With `CCN(CC)CCNC(=O)c1nn(C)c2c1CS(=O)(=O)c1ccccc1-2`, the survival is inactive: 83%. As to `CCOC(=O)c1ccc(N2C(=O)c3n[nH]c(-c4ccco4)c3C2c2ccc(O)c(OC)c2)cc1` (centres undefined), the survival is inactive: 124%. With `CCC(=O)N1c2ccccc2CC1C(=O)NCCc1ccc(C)cc1` (centres undefined), the survival was inactive: 83%. For `Cc1ccc(CNC(=O)c2nn(C)c3c2CS(=O)(=O)c2ccccc2-3)cc1`, the survival is inactive: 87%.

With `CCC(C)OC(=O)/C(C#N)=C\c1ccc(-c2ccccc2Cl)o1` (centres undefined), the survival is inactive: 66%. Take `O=C(Nc1nc2nc(-c3ccccc3)cc(=O)n2[nH]1)c1ccc(Cl)cc1`: the survival was inactive: 88%. For `CNC(=O)COc1ccc(NC(=O)CCn2nc(-c3ccc(C)cc3)c3ccccc3c2=O)cc1`, the survival is inactive: 68%. To `O=C(CSCc1nc2cccnc2n1C1CCCCC1)NCc1cccc(Cl)c1` belongs inactive: 124%; to `COc1ccc(-n2nc(C(=O)N3CCN(c4cccc(C)c4C)CC3)c3c4ccccc4n(C)c3c2=O)cc1`, inactive: 126%; to `CC1=C(c2ccc(C(C)C)cc2)S(=O)(=O)NC1=NCc1ccccc1Br`, inactive: 82%. As to `CCOc1ccc(N(CC(=O)NCc2ccc(C)cc2)S(=O)(=O)c2c(C)noc2C)cc1`, the survival was inactive: 86%.

As for `O=C(c1ccc(CSc2nc3ccncc3n2Cc2cccc(F)c2)cc1)N1CCCCC1`, the survival is inactive: 76%.

Consider `O=C(NCc1ccco1)C(c1ccco1)N(C(=O)Cn1nnc2ccccc21)c1ccccc1` (centres undefined), for which the survival is inactive: 111%. Next, `Cc1cccc(NC(=O)Cn2c(=O)nc(-c3ccccc3)c3ccccc32)c1C`: inactive: 74%. Turning to `COC(=O)CSc1nc2cc3c(cc2cc1C#N)OCO3`, the survival is inactive: 98%.

For the compound `CNC(=O)C1CCC(Cn2c(=O)c3sccc3n(CC(=O)Nc3ccc(C)c(F)c3)c2=O)CC1` (centres undefined), the survival was inactive: 66%. `CCOC(=O)c1c(C)[nH]c(C)c1S(=O)(=O)N1CCC(C(=O)Nc2ccc(C)cn2)CC1`: the survival is inactive: 81%. Take `CCOc1ccc(CCNC(=O)Cn2ncc3c(=O)oc4ccc(C)cc4c32)cc1`: the survival was inactive: 80%.

For the compound `CCn1c2ccccc2c2cc(NC(=O)COc3cccc(C)c3)ccc21`, the survival was inactive: 34%. As to `CCOc1cc2[nH]c(=O)n(CCCC(=O)N3CCN(c4ccc(OC)cc4)CC3)c(=O)c2cc1OCC`, the survival was inactive: 86%.

Regarding `COc1ccc(C)cc1NC(=O)C1CCCN(S(=O)(=O)c2ccc3[nH]c(=O)ccc3c2)C1` (centres undefined), the survival is inactive: 93%. To `O=C(COc1ccc2ccccc2c1)Nc1ccc(NC(=O)c2ccco2)cc1` belongs inactive: 108%. Regarding `COc1cc(NC(=O)CN2C(=O)CN(C)C(=O)c3ccccc32)cc(OC)c1OC`, the survival was inactive: 129%.

Turning to `CCCCN1CC(c2nc3ccccc3n2CCCCOc2ccc(C)c(C)c2)CC1=O` (centres undefined), the survival was inactive: 24%. To `COc1ccc(OC)c(NS(=O)(=O)c2ccc3[nH]c4c(c3c2)CCCCC4)c1` belongs inactive: 85%. Next, `Cc1ccc(F)c(NC(=O)Nc2ccc3snnc3c2)c1`: inactive: 117%; `O=C1c2[nH]nc(-c3ccccc3O)c2C(c2cccc(Cl)c2)N1Cc1cccnc1` (centres undefined): inactive: 63%; `O=C(N/N=C/C=C/c1ccco1)c1ccccc1F`: inactive: 105%. Consider `O=C(/C=C/c1ccco1)ON1C(=O)c2ccccc2C1=O`, for which the survival is inactive: 117%.

Turning to `CCOc1ccc(CCNC(=O)c2cn(CC)c3ccc(S(=O)(=O)N4CCCCCC4)cc3c2=O)cc1OCC`, the survival was inactive: 83%. Regarding `CC(=O)N1CCCc2cc(S(=O)(=O)N(C)CC(=O)Nc3cccc(C)c3C)ccc21`, the survival is inactive: 73%.

In the case of `Cc1cccc(CNC(=O)Cn2ccc3cc(S(=O)(=O)N4CCCC4)ccc32)c1`, the survival was inactive: 69%. To `O=C(NCCN1CCN(c2cccc(Cl)c2)CC1)C1COc2ccccc2C1` (centres undefined) belongs inactive: 87%; to `CN(C)S(=O)(=O)c1ccc(C(=O)NC2CC(=O)N(c3ccc4c(c3)OCCO4)C2)cc1` (centres undefined), inactive: 64%. For the compound `CCOC(=O)c1cc(-c2ccc(C)cc2)n(CCC(=O)Nc2ccc(C(C)C)cc2)c1C`, the survival is inactive: 95%.

As for `Cc1cccc(NC(=O)CS(=O)(=O)c2nc(-c3ccccc3)cn2-c2cccc(Cl)c2)c1C`, the survival was inactive: 89%. As to `C[n+]1ccn(CC(=O)c2ccccc2)c1`, the survival is inactive: 101%.

Take `COc1cc(C2C(C(=O)Nc3ccc(C)cc3C)=C(C)Nc3nc4ccccc4n32)cc(OC)c1OC` (centres undefined): the survival is inactive: 73%.

In the case of `Cc1cccc(NC(=O)Cn2nnc(C(=O)Nc3ccccc3Br)c2N)c1C`, the survival was active: 0%.

As for `Cn1cc(C(=O)NCc2ccccc2)c(=O)c2cc(S(=O)(=O)N3CCOCC3)ccc21`, the survival was inactive: 80%. Consider `CC(C)C(c1nnnn1CCc1ccccc1)N(Cc1ccco1)Cc1ccccc1Cl` (centres undefined), for which the survival is inactive: 121%.

With `O=C(NC1CC(=O)N(c2ccc(Cl)cc2)C1)c1ccc2c(c1)OCO2` (centres undefined), the survival is inactive: 68%. As to `COc1cccc(-c2nc(CS(=O)(=O)CC(=O)Nc3c(C)cc(C)cc3C)c(C)o2)c1`, the survival was inactive: 99%. To `COc1cccc(N2CCN(C(=O)C3CCN(S(=O)(=O)c4c(C)noc4C)CC3)CC2)c1` belongs inactive: 87%.

In the case of `CSc1ccc(CCNC(=O)CN2C(=O)c3cccnc3Oc3ccc(C)cc32)cc1`, the survival was inactive: 73%. On to `COc1cccc(C(O)C(F)(F)F)c1` (centres undefined), for which the survival is inactive: 112%. Consider `N=c1n(CCN2CCCCC2)c2ccccc2n1CC(O)COc1ccc(Cl)cc1Cl` (centres undefined), for which the survival was active: -3%. To `Cc1ccc2c(=O)cc(C(=O)N(Cc3ccc(N(C)C)cc3)C3CCS(=O)(=O)C3)oc2c1` (centres undefined) belongs inactive: 111%; to `CCCN1CCN(CCCNC(=O)Cn2nc(CC)n3c(cc4occc43)c2=O)CC1`, inactive: 122%. For `Cc1cc(NC(=O)N(C)CCc2c(C)nn(C)c2C)ccc1Br`, the survival is inactive: 67%.

`CC1(C)O[C@H]2[C@@H](O1)[C@@H](C(=O)Nc1ccc(F)c(F)c1)O[C@@H]1OC(C)(C)O[C@@H]12`: the survival was inactive: 106%. In the case of `COc1ccc(Cn2c(SCc3ccc(C(=O)NCc4cccs4)cc3)nc3cccnc32)cc1`, the survival is inactive: 75%. In the case of `CCc1cccc(C)c1NC(=O)CSc1nc2ccccc2nc1N1CCOCC1`, the survival is inactive: 75%. With `COc1ccccc1CN1C(=O)CN(C2CCCCCC2)C(=O)C1c1ccc(C)cc1` (centres undefined), the survival was inactive: 92%. Take `Cc1cc(F)ccc1NS(=O)(=O)c1c(C)nc2scc(C)n2c1=O`: the survival is inactive: 73%. With `Fc1ccc(Nc2ncnc3onc(-c4ccc(Cl)cc4)c23)cc1Cl`, the survival was inactive: 71%.

Take `CCOc1ccc(CCNC(=O)c2ccc3c(c2)N(Cc2ccc(C)cc2)CCS3)cc1`: the survival was inactive: 81%. Consider `O=C(C1CCCN(S(=O)(=O)c2ccc(Br)s2)C1)N1CCN(c2ccccc2F)CC1` (centres undefined), for which the survival is inactive: 68%.
